Test results published in ChEMBL document CHEMBL1961873, “Compounds: GSK PKIS; Assays: Nanosyn kinase panel” (2012).
For some of these results: What follows is the remainder of the data, with few or none of the strong results. The entries are a selection whose mix differs from that of the whole data set.

Each compound was assayed against Angiopoietin-1 receptor (Homo sapiens) (UniProt Q02763). Settings: at 1 µM.
UniProt Q02763, sequence (Q02763 whole entry): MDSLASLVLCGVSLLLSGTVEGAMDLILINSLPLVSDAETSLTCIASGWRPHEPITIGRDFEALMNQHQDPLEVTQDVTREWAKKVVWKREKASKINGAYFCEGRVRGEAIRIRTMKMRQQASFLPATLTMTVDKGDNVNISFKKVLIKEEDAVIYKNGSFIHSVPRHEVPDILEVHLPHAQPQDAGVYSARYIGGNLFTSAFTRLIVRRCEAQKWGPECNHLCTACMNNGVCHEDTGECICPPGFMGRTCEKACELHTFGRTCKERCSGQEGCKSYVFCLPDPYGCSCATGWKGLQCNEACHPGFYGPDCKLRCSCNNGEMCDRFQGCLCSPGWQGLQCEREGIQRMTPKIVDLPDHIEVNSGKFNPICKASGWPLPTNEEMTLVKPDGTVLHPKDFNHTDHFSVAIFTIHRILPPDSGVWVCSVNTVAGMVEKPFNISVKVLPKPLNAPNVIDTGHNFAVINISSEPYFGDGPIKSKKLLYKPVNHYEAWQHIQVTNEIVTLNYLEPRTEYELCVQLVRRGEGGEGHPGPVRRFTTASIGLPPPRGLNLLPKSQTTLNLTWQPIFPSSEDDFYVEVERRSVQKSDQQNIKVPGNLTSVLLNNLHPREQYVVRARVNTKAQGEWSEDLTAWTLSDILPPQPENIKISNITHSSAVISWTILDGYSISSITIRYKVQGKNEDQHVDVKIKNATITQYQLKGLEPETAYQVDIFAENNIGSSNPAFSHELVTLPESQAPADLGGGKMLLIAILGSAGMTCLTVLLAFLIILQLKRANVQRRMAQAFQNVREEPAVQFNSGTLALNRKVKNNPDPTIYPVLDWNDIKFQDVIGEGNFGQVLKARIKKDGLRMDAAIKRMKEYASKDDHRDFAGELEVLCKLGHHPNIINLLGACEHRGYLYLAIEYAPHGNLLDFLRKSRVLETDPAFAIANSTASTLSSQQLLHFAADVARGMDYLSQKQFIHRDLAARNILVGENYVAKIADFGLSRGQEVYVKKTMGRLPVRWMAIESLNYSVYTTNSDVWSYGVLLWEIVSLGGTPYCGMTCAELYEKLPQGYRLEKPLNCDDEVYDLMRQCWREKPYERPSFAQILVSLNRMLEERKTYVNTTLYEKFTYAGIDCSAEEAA
`Cc1cccc(Oc2nccc(-c3c(-c4ccc(F)cc4)ncn3C3CCNCC3)n2)c1C` gave an inhibition of 4.85%.
`Fc1ccc(-c2ncn(C3CCNCC3)c2-c2ccnc(Oc3cccc(F)c3)n2)cc1` showed an inhibition of 5.78%.
`O=C(O)c1ccc(Oc2nccc(-c3c(-c4ccc(F)cc4)ncn3C3CCNCC3)n2)cc1` gave an inhibition of 2.55%.
For `Fc1ccc(-c2ncn(C3CCNCC3)c2-c2ccnc(Oc3cccc(C(F)(F)F)c3)n2)cc1`, the inhibition was 6.06%.
`CC(C)(C)c1ccc(Oc2nccc(-c3c(-c4ccc(F)cc4)ncn3C3CCNCC3)n2)cc1` showed an inhibition of 4.69%.
With `COc1ccccc1Oc1nccc(-c2c(-c3ccc(F)cc3)ncn2C2CCNCC2)n1` the inhibition was 5.82%.
Work on `O=C1NC(=O)C(c2cccc([N+](=O)[O-])c2)=C1Nc1cc(Cl)c(O)c(Cl)c1` yielded an inhibition of 4.76%.
In the case of `Fc1ccc(Oc2nccc(-c3c(-c4ccc(F)cc4)ncn3C3CCNCC3)n2)cc1`, the inhibition is reported as 3.93%.
`O=C1NC(=O)C(c2ccccc2)=C1Nc1ccccc1` gave an inhibition of 9.38%.
`COc1ccccc1C1=C(Nc2ccccc2)C(=O)NC1=O` gave an inhibition of 10.5%.
`Fc1ccc(-c2ncn(C3CCNCC3)c2-c2ccnc(Oc3ccc(Cl)cc3)n2)cc1` gave an inhibition of 0.87%.
`CS(=O)(=O)c1ccc(Oc2nccc(-c3c(-c4ccc(F)cc4)ncn3C3CCNCC3)n2)cc1` was tested, and the inhibition was 4.73%.
`O=C1NC(=O)C(c2ccccc2Cl)=C1Nc1cc(Cl)c(O)c(Cl)c1` was tested, and the inhibition was 2.62%.
`NC(=O)CCc1ccccc1Oc1nccc(-c2c(-c3ccc(F)cc3)ncn2C2CCNCC2)n1` showed an inhibition of 1.36%.

Each compound was assayed against T1, Non-receptor tyrosine-protein kinase TNK1 (Homo sapiens) (UniProt Q13470). Settings: at 0.1 µM.
T1 sequence (whole entry): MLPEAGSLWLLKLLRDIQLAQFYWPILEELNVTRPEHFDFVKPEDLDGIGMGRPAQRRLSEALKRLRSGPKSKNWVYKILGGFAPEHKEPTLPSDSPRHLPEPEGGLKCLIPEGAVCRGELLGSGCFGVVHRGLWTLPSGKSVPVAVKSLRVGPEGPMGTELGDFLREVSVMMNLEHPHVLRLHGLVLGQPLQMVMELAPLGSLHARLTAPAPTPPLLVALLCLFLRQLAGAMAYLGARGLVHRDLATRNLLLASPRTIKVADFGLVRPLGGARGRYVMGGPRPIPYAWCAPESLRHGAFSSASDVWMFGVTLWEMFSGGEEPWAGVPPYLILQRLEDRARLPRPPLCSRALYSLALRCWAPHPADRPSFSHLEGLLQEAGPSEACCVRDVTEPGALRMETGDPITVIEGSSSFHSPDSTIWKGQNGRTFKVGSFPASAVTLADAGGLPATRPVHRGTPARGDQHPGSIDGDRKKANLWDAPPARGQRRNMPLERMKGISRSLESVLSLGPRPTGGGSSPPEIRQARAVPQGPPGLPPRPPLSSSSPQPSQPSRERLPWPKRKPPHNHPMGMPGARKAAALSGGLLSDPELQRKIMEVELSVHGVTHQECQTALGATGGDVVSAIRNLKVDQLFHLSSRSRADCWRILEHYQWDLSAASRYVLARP
With `Cc1cccc(Oc2nccc(-c3c(-c4ccc(F)cc4)ncn3C3CCNCC3)n2)c1C` the inhibition was 0.53%.
`Fc1ccc(-c2ncn(C3CCNCC3)c2-c2ccnc(Oc3cccc(F)c3)n2)cc1` gave an inhibition of 3.17%.
`O=C(O)c1ccc(Oc2nccc(-c3c(-c4ccc(F)cc4)ncn3C3CCNCC3)n2)cc1` showed an inhibition of 2.93%.
Work on `Fc1ccc(-c2ncn(C3CCNCC3)c2-c2ccnc(Oc3cccc(C(F)(F)F)c3)n2)cc1` yielded an inhibition of 3.98%.
Work on `CC(C)(C)c1ccc(Oc2nccc(-c3c(-c4ccc(F)cc4)ncn3C3CCNCC3)n2)cc1` yielded an inhibition of -2.21%.
`COc1ccccc1Oc1nccc(-c2c(-c3ccc(F)cc3)ncn2C2CCNCC2)n1` gave an inhibition of 0.7%.
For `O=C1NC(=O)C(c2cccc([N+](=O)[O-])c2)=C1Nc1cc(Cl)c(O)c(Cl)c1`, the inhibition was 1.38%.
For `Fc1ccc(Oc2nccc(-c3c(-c4ccc(F)cc4)ncn3C3CCNCC3)n2)cc1`, the inhibition was 2.48%.
`O=C1NC(=O)C(c2ccccc2)=C1Nc1ccccc1` was tested, and the inhibition was 2.76%.
With `COc1ccccc1C1=C(Nc2ccccc2)C(=O)NC1=O` the inhibition was 1.18%.
`Fc1ccc(-c2ncn(C3CCNCC3)c2-c2ccnc(Oc3ccc(Cl)cc3)n2)cc1` gave an inhibition of 1.46%.
`CS(=O)(=O)c1ccc(Oc2nccc(-c3c(-c4ccc(F)cc4)ncn3C3CCNCC3)n2)cc1` gave an inhibition of -0.86%.
For `O=C1NC(=O)C(c2ccccc2Cl)=C1Nc1cc(Cl)c(O)c(Cl)c1`, the inhibition was 2.9%.
With `NC(=O)CCc1ccccc1Oc1nccc(-c2c(-c3ccc(F)cc3)ncn2C2CCNCC2)n1` the inhibition was -0.89%.
